According to PubChem BioAssay AID1508624 (National Center for Advancing Translational Sciences (NCATS), 2021):
In all, about 48,000 compounds went through this assay and about 120 (0.25%) were called active. Another 4% or so got no clear call; they are omitted. The call rests on the fitted dose curve; in most records, active means well fitted activation curve with a large enough effect; inconclusive means small, poorly fitted or top-dose-only effect, or another doubt; inactive means no such curve, though single readings can be large or run the other way. The list shows a part of the results.

Assay: Primary qHTS for Identification of Small Molecule Activators of Huntingtin-Antisense Promoter Activity; further: nearly all actives have a fitted effect of over 55% in size
Conditions: HEK293 HTT-AS promoter firefly luciferase reporter, 24 h; series mostly up to 57.5 µM; activity change, positive = activation: at the top concentration
Summary of the method: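 Firefly luciferase signal from promoter-reporter HEK293 cells was scaled between vehicle (0%) and zero RLU (-100%). Compounds were tested at final concentrations of up to 57.5 uM over 24 h at 37 degrees C. PTC124 at 50 uM final served as control inhibitor.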

Activity change, positive = activation, inactive:
CCCCN(CCCC)C(=O)CN(C)S(=O)(=O)c1ccc2c(c1)c(=O)n(C)c(=O)n2C -25.7%, CC(Nc1ccc(-c2nc(-c3ccncc3)no2)cc1[N+](=O)[O-])c1ccccc1 (stereo not drawn) -6.55%, Cc1sc2c(c1C)c(=O)n(CCc1ccccc1)c(=O)n2Cc1cccc(F)c1 -9.99%, Cc1ccc(-n2c(=O)c3c(c4cc(C)ccc4n3C)n(CC(=O)NCc3ccccc3Cl)c2=O)cc1 -8.05%, O=C(Nc1cc(F)ccc1F)C1CCN(c2nc3ccccc3n3cccc23)CC1 -9.72%, CCOC(=O)c1ccc(CN(Cc2ccccc2)S(=O)(=O)c2ccc(C)cc2)cc1 -26.5%, COc1ccc(CCC(=O)NC2CC(=O)N(c3ccc(C)cc3)C2)cc1 (stereo not drawn) -6.27%, CCCCNC(=O)C(CC)Sc1nnc(-c2cccc(F)c2)c(-c2cccc(F)c2)n1 (stereo not drawn) -3.77%, COc1ccc2oc(=O)cc(CN3CCN(c4ccc(F)cc4)CC3)c2c1 -33.7%, CCCCOC(=O)c1ccc(Nc2ncnc3[nH]ncc23)cc1 5.77%, Cc1cc(C)cc(N2CC(c3nc(-c4ccccc4C)no3)CC2=O)c1 (stereo not drawn) -13%, CC(=O)Nc1c(C)nn(-c2ccccc2)c1N1CCC(C(=O)NCc2ccc(Cl)cc2)CC1 16.6%, Cc1cccc(NC(=O)Cn2c(=O)n(-c3ccccc3Cl)c(=O)c3c(C)c(C(=O)N(C)C)sc32)c1 -1.07%, CCOC(=O)c1ccc(NC(=O)CN(c2ccc(C)cc2)S(=O)(=O)c2c(C)noc2C)cc1 -29%, Cc1nc2c(C(=O)NCCc3ccc(Cl)cc3)cnn2c(C)c1Cc1c(F)cccc1Cl -2.95%, CCOc1ccccc1NC(=O)C(Cc1ccccc1)NS(=O)(=O)c1ccc2c(c1)oc(=O)n2C (stereo not drawn) -20.2%, O=C(CN1C=NS(=O)(=O)c2ccccc21)Nc1ccc(F)cc1 -3.04%, O=C(NCc1cccs1)c1ccc2c(c1)N(Cc1ccccc1Cl)C(=O)c1ccccc1S2 -24.8%, COc1ccc(-c2cc3nc(C)c(CCC(=O)N4CCN(c5cccc(Cl)c5)CC4)c(C)n3n2)c(OC)c1 -45.3%, Cc1ccccc1-c1ncnn1-c1sc2c(c1C#N)CCCCC2 10.8%, COc1ccc(-c2cc(C(=O)OCC(=O)c3ccc(C)cc3)c3cccc(Cl)c3n2)cc1 7.14%, C[C@]12CC[C@@H]3c4ccc(O)cc4CC[C@H]3[C@H]1[C@@H](O)[C@@H](O)[C@H]2O 8.76%, CC(C)Cn1c(=O)c2ccccc2n2c(CCC(=O)NCc3ccccc3Cl)nnc12 -1.41%, CC(=O)NCCNC(=O)CCCc1nnc2n(C)c(=O)c3sccc3n12 -4.52%, O=C(CN1CCNCC1)NC1CCCCC1 -12.6%, COc1ccc(CNC(=O)c2cc3cc(C)ccc3n2C)cc1 -18.2%, Cc1nn(Cc2noc(C(=O)NCc3ccc(F)cc3)n2)c(C)c1Br -14.1%, O=C(NCCc1ccccc1)c1ccc2c(c1)N(Cc1ccccc1Cl)C(=O)c1ccccc1S2 -4.4%, COc1ccc(-c2nc3scc(CCNS(=O)(=O)c4ccc(F)cc4F)n3n2)cc1OC -27.6%, CC(C)NC(=O)Nc1ccc2c(c1)N(C)C(=O)c1ccccc1S2 -4.1%, COc1ccccc1CNC(=O)C(Cc1ccccc1)NS(=O)(=O)c1ccc2c(c1)oc(=O)n2C (stereo not drawn) -23.7%, CCOC(=O)c1cccc(NC(=O)CSc2ncc3c(n2)-c2ccccc2N(C)S3(=O)=O)c1 16.3%, CCOc1ccc(CC(=O)Nc2ccc3nc(N4CCCCC4)cc(C)c3c2)cc1OCC -18%, O=C1CC(c2nc3ccccc3n2CCCCOc2ccccc2)CN1c1ccccc1Cl (stereo not drawn) -53.1%, CCc1nnc(NC(=O)CSc2nc3c([nH]c4ccccc43)c(=O)n2-c2cc(C)cc(C)c2)s1 26.9%, Cc1ccccc1CNC(=O)C(C)n1nc(C)n2c(cc3occc32)c1=O (stereo not drawn) -14.5%, COc1ccc(CC(=O)Nc2nc3c(s2)CC(C(C)(C)C)CC3)cc1 (stereo not drawn) 4.69%, COc1ccc(NC(=O)C2=CC(c3cccs3)=NS(=O)(=O)N2C)cc1 -12.6%, Cc1ccc(NC(=O)CN2C(=O)CCSc3ccc(S(=O)(=O)N4CCCC4)cc32)cc1 -0.839%, CC(C)N(CCCNC(=O)Nc1ccc(C(C)(C)C)cc1)C[C@H]1O[C@@H](n2cc(Br)c3c(N)ncnc32)[C@H](O)[C@H]1O -74.2%, CCc1ccc(-c2nc(CSCC(=O)NCc3ccccc3OC)c(C)o2)cc1 -41.6%, Cc1ccc(-c2nc3c(c(SCC(=O)N4CCCCC4)n2)Cc2cc(C)ccc2O3)cc1 1.64%, CC(C)=CCC[C@@](C)(O)[C@H]1CC=C(C)CC1 -2.52%, CCn1c(CNC(=O)c2ccc(OC)cc2)nnc1SCC(=O)Nc1ccc(OC)cc1 -6.01%, Cn1c(=O)oc2cc(S(=O)(=O)CCC(=O)NCc3ccccc3)ccc21 4.96% [at 11.5 µM, percent change from vehicle, -100% = no light], CCOc1ccc(N2CC(c3nc(-c4cc(OC)c(OC)c(OC)c4)no3)CC2=O)cc1 (stereo not drawn) -2.91%, CCOc1ccc(N(C)S(=O)(=O)c2ccc3c(c2)C(C)(C)C(=O)N3C)cc1 -7.05%, Cc1ccc(C)c(NC(=O)C2CCCN(S(=O)(=O)c3c(C)noc3/C=C/N(C)C)C2)c1 (stereo not drawn) -25.4%, Cc1ccc(-n2nnc3c(sc4nc(C)c(C)cc43)c2=O)cc1Cl 2.54%, COc1cccc(N2CC(NC(=O)c3ccc(S(=O)(=O)N4CCCC4)cc3)CC2=O)c1 (stereo not drawn) -16.5%, O=C(NC1CCCC1)c1c[nH]c2ccc(S(=O)(=O)Nc3cccc(C(F)(F)F)c3)cc2c1=O -43.9%, CCOC(=O)c1c(C)oc2nc(C)nc(NCC3CCN(Cc4ccc(Cl)cc4)CC3)c12 -12.4%, CCN(c1ccccc1)S(=O)(=O)c1nnc(NC(=O)COc2ccc(OC)cc2)s1 -20.4%, O=C1C(CCC(O)c2ccc(F)cc2)C(c2ccc(O)cc2)N1c1ccc(F)cc1 (stereo not drawn) -20.6%, COCCNC(=O)C1CCN(S(=O)(=O)c2ccc3c(c2)CCCN3C(C)=O)CC1 -5.31%, CCOC(=O)c1[nH]c(C)c(CCC(=O)N2CCN(c3ccccc3)CC2)c1C -11.9%, COc1ccc(-c2nc3n(n2)C(c2ccc(OC)cc2)C(C(=O)Nc2cccnc2)=C(C)N3)cc1 (stereo not drawn) -21%, Clc1cccc(CNc2ncnc3c2nc2n3CCCC2)c1 -7.78%, COc1ccc(-n2ncc3c(N4CCN(c5cccc(C)c5)C(C)C4)ncnc32)cc1 (stereo not drawn) -94%, CCOc1ccc(Cn2c(=O)oc3ccccc32)cc1 -6.58%, Cc1ccc(-c2noc(COc3ccc(Br)c(C)c3)n2)cc1 -14.6%, O=C1C(=O)c2ccccc2C(O)=C1C1CCC(c2ccc(Cl)cc2)CC1 (stereo not drawn) -2.73%, COc1ccc(Cl)cc1NC(=O)CCc1nc(-c2ccccc2F)no1 -27.3%, Cn1cc(C2=C(c3c4n(c5ccccc35)CCC(CN)C4)C(=O)NC2=O)c2ccccc21 (stereo not drawn) 24.1%, O=C(Cn1c(=O)n(Cc2ccc3c(c2)OCO3)c(=O)c2ccccc21)Nc1cccc(Cl)c1 -26.8%, Cc1c(C(=O)N2CCCC2)oc2c1-c1nn(CC(=O)NCc3cccc(Br)c3)cc1CC2 -21.6%, NS(=O)(=O)c1ccc(NC(=O)CCn2c(=O)oc3ccccc32)cc1 -9.24%, COc1ccc(NC(=O)N2CCc3c(sc4c3CCCC4)C2c2ccc(F)cc2)cc1 (stereo not drawn) -22.2%, O=C(CCSCc1ccccc1F)N1CCN(c2ccc(F)cc2)CC1 -2.41%, Cn1cc(C(=O)NCc2ccc(F)cc2)c(=O)c2cc(S(=O)(=O)N3CCCCC3)ccc21 -17.6%, CCOc1ccccc1NC(=O)Cn1c(=O)n(Cc2ccc(C(=O)NCCCOC)cc2)c(=O)c2ccccc21 -6.51%, COc1cc(OC)c(NC(=O)c2oc3ccc4c(c3c2C)C(=O)CC(C)(C)O4)cc1Cl -3.24%, O=C(O)c1cccc(NC(=O)c2cccc(S(=O)(=O)Nc3cccc(C(=O)O)c3)c2)c1 -1.5%, CCn1c(=O)c2cc(C(=O)N(C)c3cc(C)ccc3C)sc2c2ccccc21 -2.37%, CC(C)c1ccc(Nc2nc3ccc(C(=O)c4ccccc4)cc3n3cnnc23)cc1 -36.5%, CCN(C(=O)c1sc2nc3n(c(=O)c2c1C)CCCCC3)c1ccccc1F -5.74%, Cc1ccc(NC(=O)Nc2nnc(N3CCCCC3)s2)c(C)c1 -12.1%, CCc1ccc(CNC(=O)c2cc3c(=O)oc4ccc(C)cc4c3s2)cc1 -4.69%, COc1ccc(NC(=O)c2ccc3snnc3c2)cc1OC -0.892%, CN(C)C(=O)c1ccc(S(=O)(=O)NCc2ccccc2Cl)s1 -2.64%, COc1cc(OC)cc(-n2c(=O)[nH]c3cc(C(=O)NCCc4ccc(C)cc4)ccc3c2=O)c1 19.6%, CC1=C(c2ccc(C)c(C)c2)S(=O)(=O)N=C1N1CCN(c2cccc(C(F)(F)F)c2)CC1 -6.19%, Cc1ccc(NC(=O)Cn2c(=O)n(-c3ccc(CC(=O)NCC4CCCO4)cc3)c(=O)c3ccccc32)cc1 (stereo not drawn) -15.5%, COCCCNC(=O)Cn1c(=O)n(CCCC(=O)NCc2ccc(C)cc2)c(=O)c2ccccc21 -3.23%, CCCC(=O)N(c1ccc2oc(-c3ccccc3)c(C(=O)OCC)c2c1)S(=O)(=O)c1ccc(C)cc1 -13.7%, Cc1ccc(/C=C(\C#N)c2nc(-c3cc4c(ccc5ccccc54)oc3=O)cs2)cc1 -21.4%, O=C(NCC(c1ccc2c(c1)OCO2)N1CCOCC1)c1ccc(F)cc1 (stereo not drawn) -13.2%, CCCCN1CC(c2nc3ccccc3n2CCCCOc2c(C)cccc2C)CC1=O (stereo not drawn) -50%, CCOc1ccc(Sc2cc(C(=O)NCCc3ccc(OC)c(OC)c3)c3ccccc3n2)cc1 -35.6%, COc1ccc(-c2nn(-c3ccccc3)cc2C(=O)Nc2ccccc2OC)cc1 -19.5%, CCn1cc(C(=O)N2CCN(c3ccccc3OC)CC2)c(=O)c2cc(S(=O)(=O)N3CCCCC3)ccc21 -10.7%, CC(C)CN(c1ccccc1)S(=O)(=O)c1nnc(NC(=O)c2ccco2)s1 -48.7%, Cc1cccc(C(=O)Nc2ccccc2-c2nc(-c3ccccc3)no2)c1 -1.76%
